Data on 57 molecules can be found in PMC4336329 (PLoS ONE, 2015).

Each structure is given as a SMILES string. In all, about 310,000 compounds went through this assay and about 14,000 (4.5%) showed an effect of 50% or more. The effect is printed as a negative number. The list shows a part of the results.
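Further: peak tail current of the secondary pulse compared with the same well before compound.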

In the test the target is human ether-à-go-go-related gene (hERG) potassium channel (human, UniProt Q12809). The test can be described thus: primary screen, population patch clamp on CHO cells stably expressing hERG.
Chain of human ether-à-go-go-related gene (hERG) potassium channel (Q12809 whole entry, looked up): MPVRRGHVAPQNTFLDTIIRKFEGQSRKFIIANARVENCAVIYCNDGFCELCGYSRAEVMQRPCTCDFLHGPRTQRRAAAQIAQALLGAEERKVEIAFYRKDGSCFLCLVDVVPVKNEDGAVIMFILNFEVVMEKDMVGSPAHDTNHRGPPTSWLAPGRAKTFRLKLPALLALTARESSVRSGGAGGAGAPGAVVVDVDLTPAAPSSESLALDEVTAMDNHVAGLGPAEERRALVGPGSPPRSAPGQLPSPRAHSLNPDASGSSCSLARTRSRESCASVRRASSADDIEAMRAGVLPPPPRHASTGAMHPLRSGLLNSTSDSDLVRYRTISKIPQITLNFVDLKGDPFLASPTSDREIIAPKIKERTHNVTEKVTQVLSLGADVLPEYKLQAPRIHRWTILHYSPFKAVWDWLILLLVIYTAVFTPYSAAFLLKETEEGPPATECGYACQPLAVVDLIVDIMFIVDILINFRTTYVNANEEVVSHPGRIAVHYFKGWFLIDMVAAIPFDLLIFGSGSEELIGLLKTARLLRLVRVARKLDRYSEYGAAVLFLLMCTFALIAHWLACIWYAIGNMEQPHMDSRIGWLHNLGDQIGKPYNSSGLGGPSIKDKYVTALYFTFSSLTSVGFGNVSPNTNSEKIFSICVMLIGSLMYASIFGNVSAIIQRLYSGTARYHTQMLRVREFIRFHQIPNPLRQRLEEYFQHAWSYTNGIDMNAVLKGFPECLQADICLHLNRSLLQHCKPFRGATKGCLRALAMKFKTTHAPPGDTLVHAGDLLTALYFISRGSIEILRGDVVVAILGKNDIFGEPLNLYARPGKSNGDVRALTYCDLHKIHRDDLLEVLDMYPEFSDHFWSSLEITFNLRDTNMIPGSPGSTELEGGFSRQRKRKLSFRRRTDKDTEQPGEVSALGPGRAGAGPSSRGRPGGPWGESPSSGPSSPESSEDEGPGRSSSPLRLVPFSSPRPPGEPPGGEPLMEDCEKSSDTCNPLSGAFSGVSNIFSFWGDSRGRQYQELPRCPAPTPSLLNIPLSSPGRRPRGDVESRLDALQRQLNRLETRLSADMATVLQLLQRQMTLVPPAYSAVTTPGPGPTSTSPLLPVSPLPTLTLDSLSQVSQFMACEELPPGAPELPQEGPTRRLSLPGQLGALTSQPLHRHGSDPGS
Take `Br.CCCCN1C2=NCCCN2c2cc(C)c(C)cc21`: the “hERG current change (%, negative = inhibition) at 10uM” value is given as -65.4%.

With `CCN(C(=O)COc1ccccc1)c1nnc(-c2cccnc2)s1`, the “hERG current change (%, negative = inhibition) at 10uM” value came out at 8.69%.

In the case of `CSc1nnc(-c2ccc(C(F)(F)F)cn2)o1`, the “hERG current change (%, negative = inhibition) at 10uM” value was determined as 11.7%.

As to `O=S(=O)(/N=S1/CC=CCN1S(=O)(=O)c1ccccc1)c1ccccc1` (stereo not drawn), the “hERG current change (%, negative = inhibition) at 10uM” value was found to be 10.6%.

Regarding `CC1CCCC(C)N1C(=O)COC(=O)CNC(=O)c1ccccc1F` (stereo not drawn), the “hERG current change (%, negative = inhibition) at 10uM” value is reported as 17.2%.

Consider `Cc1ccc(CCNC(=O)C2CCCN(c3nc4ccccc4o3)C2)cc1` (stereo not drawn), for which the “hERG current change (%, negative = inhibition) at 10uM” value is -26.9%.

With `NC(=O)c1ccc(Oc2ccc(Cl)c3ccccc23)c([N+](=O)[O-])c1`, the “hERG current change (%, negative = inhibition) at 10uM” value came out at 3.41%.

In the case of `C=CCn1c(SCc2cc(C(=O)OC)c(C)o2)nnc1-c1ccncc1`, the “hERG current change (%, negative = inhibition) at 10uM” value is recorded as -16.2%.

As for `CCOC(=O)C1=C(CNCc2ccc(F)cc2)NC(=O)NC1c1cccc([N+](=O)[O-])c1` (stereo not drawn), the “hERG current change (%, negative = inhibition) at 10uM” value is given as -29.1%.

For the molecule `O=C(Nc1ccc(F)cc1)c1cc2cc(Cl)ccc2[nH]1`, the “hERG current change (%, negative = inhibition) at 10uM” value is -14.8%.

Regarding `Cc1ccccc1NC(=O)Cc1c[nH]c2ccccc12`, the “hERG current change (%, negative = inhibition) at 10uM” value was determined as 14.4%.

Take `Cc1cccc(CN2CCc3c(OCC(=O)N4CCCc5ccccc54)cccc3C2=O)c1`: the “hERG current change (%, negative = inhibition) at 10uM” value was determined as 7.12%.

As for `Cc1noc(C)c1CSCC(=O)Nc1ccc(S(C)(=O)=O)cc1`, the “hERG current change (%, negative = inhibition) at 10uM” value is recorded as 15.2%.

`CC(C(=O)NCc1cccc(Cl)c1)N1C(=O)c2ccccc2C1=O` (stereo not drawn): the “hERG current change (%, negative = inhibition) at 10uM” value was 5.05%.

For `CC(CCCC(C)(C)O)NC(=O)c1cc(COc2ccc3ncccc3c2)on1` (stereo not drawn), the “hERG current change (%, negative = inhibition) at 10uM” value worked out at 5.7%.

With `O=[N+]([O-])c1cccc(N/N=C/c2cccc3ccccc23)c1`, the “hERG current change (%, negative = inhibition) at 10uM” value was 1.97%.

`O=C(Nc1nnc(COc2ccccc2)s1)C1CCN(S(=O)(=O)c2ccc(Cl)cc2)CC1`: the “hERG current change (%, negative = inhibition) at 10uM” value came to 1.8%.

Consider `COc1ccc(OC)c(/C=C/C(=O)OCC(=O)Nc2cccc(Oc3ccccc3)c2)c1`, for which the “hERG current change (%, negative = inhibition) at 10uM” value is on record as 26.9%.

Take `Cc1c(Cl)cccc1NC(=O)CSc1nccn1C`: the “hERG current change (%, negative = inhibition) at 10uM” value was found to be 7.09%.

For `COc1cccc(-n2cc3c(=O)n(C)c(=O)n(C)c3c2)c1`, the “hERG current change (%, negative = inhibition) at 10uM” value is listed as -3.89%.

Turning to `CCOC(=O)COc1ccc(S(=O)(=O)Nc2ccc3c(c2)OCCO3)cc1`, the “hERG current change (%, negative = inhibition) at 10uM” value was -3.24%.

On to `CCOc1ccccc1-n1nnnc1SCC(=O)NC(=O)Nc1ccc2c(c1)OCCO2`, for which the “hERG current change (%, negative = inhibition) at 10uM” value is on record as 14.6%.

Turning to `COc1cccc(C(=O)C2CCCN(C(=O)c3ccccc3Cl)C2)c1` (stereo not drawn), the “hERG current change (%, negative = inhibition) at 10uM” value came to 5.15%.

As for `O=S(=O)(NCc1cn2ccccc2n1)c1cccs1`, the “hERG current change (%, negative = inhibition) at 10uM” value was determined as 4.2%.

With `Cc1cccc(CSCc2nnc(N)s2)c1`, the “hERG current change (%, negative = inhibition) at 10uM” value stood at 0.493%.

As for `COc1ccc(/C=C(\NC(=O)c2ccccc2)C(=O)N/N=C/c2cccnc2)cc1`, the “hERG current change (%, negative = inhibition) at 10uM” value is listed as -5.03%.

`Cc1ccc(N(Cc2ccccc2F)S(C)(=O)=O)c(C)c1`: the “hERG current change (%, negative = inhibition) at 10uM” value is on record as 0.0796%.

As for `CCOC(=O)[C@@H]1[C@H]2COc3ccccc3[C@H]2N2C(=O)N(c3ccc(F)cc3)C(=O)[C@]12C`, the “hERG current change (%, negative = inhibition) at 10uM” value is reported as -4.36%.

As to `Cc1sc(NC(=O)CN2CCOCC2)c(C#N)c1C`, the “hERG current change (%, negative = inhibition) at 10uM” value came to 6.15%.

With `CCOC(=O)C1=C(N)Oc2c(c(=O)[nH]c3ccccc23)C1c1ccccc1` (stereo not drawn), the “hERG current change (%, negative = inhibition) at 10uM” value came out at 0.203%.

With `COc1ccc(OC)c(N/C=C/C(=O)c2ccccc2)c1`, the “hERG current change (%, negative = inhibition) at 10uM” value is on record as 13.7%.

Consider `CC(NC(=O)c1ccco1)C(=O)OC(C)C(=O)NCc1ccccc1` (stereo not drawn), for which the “hERG current change (%, negative = inhibition) at 10uM” value is on record as 21.7%.

As for `COc1ccccc1C(=O)NC(CCSC)C(=O)NNC(=O)c1ccc(F)cc1` (stereo not drawn), the “hERG current change (%, negative = inhibition) at 10uM” value amounted to 1.77%.

As to `O=C(O)c1nc(NCCc2ccccc2)ncc1Cl`, the “hERG current change (%, negative = inhibition) at 10uM” value is 14%.

For the molecule `CCn1cc(CNc2nc3nonc3nc2N2CCCCC2)cn1`, the “hERG current change (%, negative = inhibition) at 10uM” value is listed as -4.36%.

For the molecule `Cc1cc(/C=C2/SC(=O)N(CC(=O)OC(C)C)C2=O)c(C)n1C`, the “hERG current change (%, negative = inhibition) at 10uM” value is given as -9.2%.

Regarding `CCc1nonc1NC(=O)c1oc2ccc(Br)cc2c1C`, the “hERG current change (%, negative = inhibition) at 10uM” value worked out at 16.2%.

As to `O=C(CCN1CCCCC1)Nn1c(=S)[nH]c2ccccc2c1=O`, the “hERG current change (%, negative = inhibition) at 10uM” value is recorded as 4.05%.

Turning to `O=C(NN1C(=O)NC2(CCCCC2)C1=O)c1cc2ccccc2o1`, the “hERG current change (%, negative = inhibition) at 10uM” value is 46%.

For `C=C(C)Cn1c(C)cc(C)c(S(=O)(=O)c2ccccc2C)c1=O`, the “hERG current change (%, negative = inhibition) at 10uM” value was 11%.

Consider `COc1cccc(N(CC(=O)N2CCN(c3ccccc3OC)CC2)S(C)(=O)=O)c1`, for which the “hERG current change (%, negative = inhibition) at 10uM” value was -5.04%.

In the case of `COc1cc2c(c3oc(-c4ccccc4)cc(=O)c13)C=CC(C)(C)O2`, the “hERG current change (%, negative = inhibition) at 10uM” value is recorded as -11.4%.

Take `Cc1ccc(S(=O)(=O)c2cnc(-c3ccccc3)nc2N2CCCCC2)cc1`: the “hERG current change (%, negative = inhibition) at 10uM” value stood at 25.7%.

For the molecule `O=C(NCc1cccnc1)c1ccc(CN2CCc3ccccc3C2)cc1`, the “hERG current change (%, negative = inhibition) at 10uM” value is reported as -1.76%.

Consider `N/C(=N\[N+](=O)[O-])N1CCN(C(=O)c2ccccn2)CC1`, for which the “hERG current change (%, negative = inhibition) at 10uM” value came to 22.2%.

`O=C(NCc1ccccc1)C(c1ccccc1)N(C(=O)c1csnn1)c1ccccc1` (stereo not drawn): the “hERG current change (%, negative = inhibition) at 10uM” value came out at 13.2%.

In the case of `COc1ccc2oc(=O)c(C(=O)N3CCc4ccccc43)cc2c1`, the “hERG current change (%, negative = inhibition) at 10uM” value is 15.8%.

Consider `Cc1c(C(O)CN2CCN(Cc3ccc4c(c3)OCO4)CC2)c2ccccc2n1C` (stereo not drawn), for which the “hERG current change (%, negative = inhibition) at 10uM” value is -75.6%.

`COC(=O)CSc1nnc(C)n1-c1cccc(OC)c1`: the “hERG current change (%, negative = inhibition) at 10uM” value is recorded as 4.54%.

Turning to `NC(=O)c1ccsc1NC(=O)c1ccc2c(c1)CCCC2`, the “hERG current change (%, negative = inhibition) at 10uM” value was determined as 1.38%.

`O=C(NC1CCCCCC1)C1CCN(S(=O)(=O)N2CCC3(CC2)OCCO3)CC1`: the “hERG current change (%, negative = inhibition) at 10uM” value is recorded as 7.74%.

For `CCOC(=O)c1nsnc1NCCCl`, the “hERG current change (%, negative = inhibition) at 10uM” value came to 11.5%.

In the case of `O=S(=O)(c1ccc(OCC(O)CN2CCC(Cc3ccccc3)CC2)cc1)N1CCOCC1` (stereo not drawn), the “hERG current change (%, negative = inhibition) at 10uM” value is listed as -44.4%.

As for `CCN(CC)S(=O)(=O)c1ccc(N2CCOCC2)c(NCC(=O)Nc2ccc(F)cc2)c1`, the “hERG current change (%, negative = inhibition) at 10uM” value was determined as 12.3%.

On to `CSCCC(NS(=O)(=O)c1ccc(C)cc1)C(=O)N1CCCC1` (stereo not drawn), for which the “hERG current change (%, negative = inhibition) at 10uM” value was 2%.

In the case of `CCn1cc(CNC(=O)/C=C/c2ccc([N+](=O)[O-])cc2)c(C)n1`, the “hERG current change (%, negative = inhibition) at 10uM” value is listed as -33%.

As for `O=C(c1ccc2c(c1)N(Cc1ccccc1)C(=O)CS2)N1CCOCC1`, the “hERG current change (%, negative = inhibition) at 10uM” value is -8.02%.
